The test relates to Citrus sinensis protoplast.

Values joined by “and” are separate entries in the source; they are usually repeats but may differ in a detail not shown here. Equal entries are not always repeated.

`Cc1cc2nc3c(=O)[nH]c(=O)nc-3n(C[C@H](O)[C@H](O)[C@H](O)CO)c2cc1C` [Riboflavin, riboflavin]: the H2O2 equivalents is 2.3 µM and 2.0 µM.
